# Test results taken from article PMC4336329 (PLoS ONE, 2015).
# About 2,200 (0.71%) of roughly 310,000 compounds showed an effect of 50% or more. Effects have a minus sign here. This is one part of the list.
# Target: human ether-à-go-go-related gene (hERG) potassium channel (human, UniProt Q12809)
# Assay: primary screen, population patch clamp on CHO cells stably expressing hERG
# Sequence of human ether-à-go-go-related gene (hERG) potassium channel (Q12809 whole entry, looked up): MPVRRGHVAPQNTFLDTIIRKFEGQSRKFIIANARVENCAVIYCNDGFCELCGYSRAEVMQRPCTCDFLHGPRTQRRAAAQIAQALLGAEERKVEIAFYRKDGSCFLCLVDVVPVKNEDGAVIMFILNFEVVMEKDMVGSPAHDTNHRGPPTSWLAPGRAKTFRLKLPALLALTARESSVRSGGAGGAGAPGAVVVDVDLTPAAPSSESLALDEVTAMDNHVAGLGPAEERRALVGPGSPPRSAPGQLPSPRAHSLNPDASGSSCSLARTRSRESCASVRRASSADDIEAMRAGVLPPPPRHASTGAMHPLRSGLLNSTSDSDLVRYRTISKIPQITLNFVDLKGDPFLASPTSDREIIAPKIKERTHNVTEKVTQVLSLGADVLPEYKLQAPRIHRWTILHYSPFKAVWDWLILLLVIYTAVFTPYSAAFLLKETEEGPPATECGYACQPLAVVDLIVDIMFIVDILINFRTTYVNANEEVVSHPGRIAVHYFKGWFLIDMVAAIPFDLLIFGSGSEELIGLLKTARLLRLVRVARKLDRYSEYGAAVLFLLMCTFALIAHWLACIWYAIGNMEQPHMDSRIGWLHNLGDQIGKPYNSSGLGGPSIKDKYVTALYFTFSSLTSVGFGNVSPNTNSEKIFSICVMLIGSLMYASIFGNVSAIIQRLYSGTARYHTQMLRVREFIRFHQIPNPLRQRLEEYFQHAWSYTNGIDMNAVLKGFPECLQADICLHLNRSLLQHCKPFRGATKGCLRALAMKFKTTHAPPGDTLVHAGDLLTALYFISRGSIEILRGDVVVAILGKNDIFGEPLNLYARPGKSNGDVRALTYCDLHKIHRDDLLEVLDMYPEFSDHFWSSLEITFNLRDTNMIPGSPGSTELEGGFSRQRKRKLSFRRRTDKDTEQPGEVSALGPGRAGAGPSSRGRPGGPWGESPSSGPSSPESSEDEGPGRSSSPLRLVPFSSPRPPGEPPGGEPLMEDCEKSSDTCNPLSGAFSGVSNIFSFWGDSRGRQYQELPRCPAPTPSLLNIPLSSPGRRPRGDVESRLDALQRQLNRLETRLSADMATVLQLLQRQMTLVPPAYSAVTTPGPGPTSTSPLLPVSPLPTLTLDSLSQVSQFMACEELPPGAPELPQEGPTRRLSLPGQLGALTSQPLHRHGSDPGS
row,Compound,"hERG current change (%, negative = inhibition) at 1uM [%]"
1,CCN(CC)S(=O)(=O)c1ccc(OC)c(NC(=O)COc2ccc3c(C)cc(=O)oc3c2)c1,12.1
2,CCO[C@H]1OC(C(=O)NC2CC2)=C[C@@H](c2ccc3c(c2)OCO3)[C@@H]1CCCO,7.75
3,COc1cc(C(=O)N(Cc2ccccc2)c2cccc(C)c2)ccc1OC(F)F,16.3
4,CCOc1ccc2cc(S(=O)(=O)N3CCN(C)CC3)ccc2c1,-6.94
5,CCn1c(=O)cc(OCC(=O)N(C)c2ccccc2F)c2ccccc21,-0.742
6,CC(CO)N1CCS(=O)(=O)CC1 (stereo not drawn),13.7
7,Cc1ccc(SCC(=O)NNC(=O)c2ccccc2)c(C)c1,15.7
8,O=C(Cn1ncc2c3ccccc3n(Cc3ccc(F)cc3)c2c1=O)N1CCN(c2ncccn2)CC1,16.2
9,COCCNCCCOc1ccc(C)cc1Br,0.877
10,COc1ccc(NC(=O)COC(=O)c2ccc(Cl)c(S(N)(=O)=O)c2)c([N+](=O)[O-])c1,6.47
11,CCOC(=O)C1CCN(C(=O)COC(=O)c2ccc3[nH]c4c(c3c2)CCCC4)CC1,7.65
12,O=c1[nH]c(SCc2ccccc2[N+](=O)[O-])nc2nc[nH]c12,6.62
13,O=C(CC1CCOCC1)Nc1ccc(Cl)c(Cl)c1,10.6
14,O=C(c1ccc(Cn2cnnn2)cc1)N1CCCC(Nc2ccc(F)c(F)c2)C1 (stereo not drawn),13.4
15,CCCCc1nc2ccccc2c(=O)n1-c1ccc(Cl)cc1[N+](=O)[O-],20.8
16,CCc1cccc(CC)c1NC(=O)CSc1nnc(C2CC2)n1C,9.93
17,COc1cccc(C2NC(=O)c3sc(=S)n(-c4ccccc4)c3N2)c1 (stereo not drawn),8.07
18,CCCc1ccc(-c2ccc(C(=O)O)cc2)nc1,12.3
19,COc1ccc(C(=O)NC(=S)Nc2ccc(CN3CCOCC3)cc2)cc1,3.79
20,CC(=O)/C(C#N)=C1\NC(=O)C(Cc2ccc(C)c(C)c2)S1 (stereo not drawn),8.94
21,CCc1ccc(C(=O)COC(=O)CCc2nc3ccccc3c(=O)[nH]2)cc1,8.69
22,C=CCc1cc(OC)ccc1OCCN(C)Cc1ccccc1.O=C(O)C(=O)O,5.86
23,CCC(C)NC(=O)CN(c1ccc(OC)cc1)S(=O)(=O)c1ccc(NC(C)=O)cc1 (stereo not drawn),-4.93

row,Compound,"hERG current change (%, negative = inhibition) at 1uM [%]"
1,O=C(CNC(=O)N1CC(=O)Nc2ccccc21)Nc1nccs1,14.9
2,O=S(=O)(c1cccs1)N1CCN(c2ccccc2F)CC1,4.98
3,Cc1ccccc1OC(C)C(=O)N1CCC(Cc2ccccc2)CC1 (stereo not drawn),9.12
4,O=C(Cc1ccccc1)Nc1cccc(C(=O)O)c1O,8.24
5,S=C(NC1CCCC1)NC1CCCC1,14.9
6,Cc1cc(OC(=O)N(C)C)n(-c2ccccc2)n1,9.41
7,CN(C)S(=O)(=O)c1ccc(NCC2COc3ccccc3O2)c([N+](=O)[O-])c1 (stereo not drawn),6.19
8,CC(C)C(C(=O)NCc1ccco1)N(C(=O)CNS(=O)(=O)c1ccc(Cl)cc1)C1CCCC1 (stereo not drawn),5.77
9,COC(=O)Cc1cc(=O)n(-c2nc3ccccc3[nH]2)[nH]1,-22.9
10,COc1ccc(NC(=O)C2CCCN(c3nc(C)cc(C)n3)C2)cc1 (stereo not drawn),15.1
11,CC(C)CN(C(=O)C1CCCCC1)C1CCS(=O)(=O)C1 (stereo not drawn),8.28
12,CCNc1nc2c(c(=O)n(Cc3ccccc3)c(=O)n2C)n1Cc1ccccc1,-6.61
13,CSCCC(NS(=O)(=O)c1ccccc1F)C(=O)N1CC=C(c2ccccc2)CC1 (stereo not drawn),15.1
14,COc1ccc(CCn2c(=N)c(C(=O)NCC3CCCO3)cc3c(=O)n4cccc(C)c4nc32)cc1OC (stereo not drawn),-87.1
15,CCOC(=O)c1ccc(NC(=O)CSc2nnc(CNc3ccc(C)cc3)n2C)cc1,13.6
16,CN1C(=O)NC(=O)/C(=C/c2ccc([N+](=O)[O-])o2)C1=O,13.9
17,CC(CC1CC(C)(C)OC1=O)C(=O)Nc1ccc([N+](=O)[O-])cc1 (stereo not drawn),-33.3
18,Cc1c(C)c2c(OCC(=O)N3CCC(O)CC3)cc3c(c2oc1=O)CCC(C)(C)O3,0.56
19,CCCCC1(CC(=O)OCC)C(=O)N(c2ccccc2)N(c2ccccc2)C1=O,2.83
20,COc1ccc(C(O)CNC(C)C)c(F)c1OC (stereo not drawn),7.53
21,CC(Oc1ccccc1)C(=O)NCc1cccnc1 (stereo not drawn),18.5
22,COc1ccc(-n2c(C)cc(/C=C(\C#N)C(=O)NCc3ccco3)c2C)cc1,5.62
